According to PubChem BioAssay AID504339 (National Center for Advancing Translational Sciences (NCATS), 2011):
The whole screen tested about 390,000 compounds, of which about 17,000 (4.4%) were called active. Inconclusive results, whose numbers are uncertain, are shown with a selection of clear calls. Calls follow the shape of the dose curve; as a rule, active = well fitted inhibition curve with a large enough effect; inconclusive = small, poorly fitted or top-dose-only effect; inactive = no such curve, though single readings can be large or run the other way. Where the call is inconclusive, the potency comes from a doubtful curve fit.

The compounds below were run against Lysine-specific demethylase 4A (Homo sapiens) (UniProt O75164) (assay: qHTS Assay for Inhibitors of JMJD2A-Tudor Domain). Conditions: AlphaScreen JMJD2A-Tudor / H3K4me3 peptide binding; activity change, negative = inhibition: at 114 µM (top of the series).
Chain of UniProt O75164 (O75164 whole entry, looked up, the tested form may be a part): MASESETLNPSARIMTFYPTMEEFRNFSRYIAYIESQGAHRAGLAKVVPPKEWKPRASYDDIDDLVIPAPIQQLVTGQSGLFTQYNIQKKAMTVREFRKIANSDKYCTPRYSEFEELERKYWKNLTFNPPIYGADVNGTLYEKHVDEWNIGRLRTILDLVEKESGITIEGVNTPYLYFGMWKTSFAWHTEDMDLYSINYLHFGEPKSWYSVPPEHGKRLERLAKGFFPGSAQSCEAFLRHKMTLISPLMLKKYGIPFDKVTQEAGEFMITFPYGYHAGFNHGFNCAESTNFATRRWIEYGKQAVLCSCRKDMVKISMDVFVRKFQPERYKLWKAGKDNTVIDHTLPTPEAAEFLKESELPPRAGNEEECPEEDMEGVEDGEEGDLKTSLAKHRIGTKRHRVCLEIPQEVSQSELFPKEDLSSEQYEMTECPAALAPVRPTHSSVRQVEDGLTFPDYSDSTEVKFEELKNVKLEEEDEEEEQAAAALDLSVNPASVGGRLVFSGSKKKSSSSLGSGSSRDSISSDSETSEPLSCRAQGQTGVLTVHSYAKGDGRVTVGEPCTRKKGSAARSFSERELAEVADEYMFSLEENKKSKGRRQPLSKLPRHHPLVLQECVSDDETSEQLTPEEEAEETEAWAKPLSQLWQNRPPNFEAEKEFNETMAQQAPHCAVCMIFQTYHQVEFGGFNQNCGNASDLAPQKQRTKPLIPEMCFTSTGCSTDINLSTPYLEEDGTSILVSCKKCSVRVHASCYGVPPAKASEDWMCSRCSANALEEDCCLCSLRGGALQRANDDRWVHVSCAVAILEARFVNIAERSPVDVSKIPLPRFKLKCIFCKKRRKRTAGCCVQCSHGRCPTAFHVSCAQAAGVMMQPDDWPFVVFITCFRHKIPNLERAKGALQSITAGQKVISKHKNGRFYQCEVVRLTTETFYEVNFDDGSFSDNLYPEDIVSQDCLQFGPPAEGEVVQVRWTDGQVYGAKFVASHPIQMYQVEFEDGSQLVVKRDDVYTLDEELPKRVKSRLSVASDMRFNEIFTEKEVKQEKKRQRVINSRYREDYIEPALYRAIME
Text: JMJD2A is a jumonji-domain-containing lysine demethylase that uses Fe(II) together with 2-OG to effect oxidative demethylation of histones. Methylation is one of many […] modification that affect epigenetic transcription. […] It is proposed that the functions of JmjD2A binding to the histones, is to maintain marks after they are installed and to spread the modifications by […], establishing a self-propagating cycle for rapid methylation over a large area of chromatin. […] Thus, small molecule targeting of the JMJD2A-tudor domain interaction with its target methylhistone mark is expected to enable sophisticated experiments probing the fine regulatory pathways leading to selective demethylation of a given methyllysine locus based on the methylation state of adjacent histone marks. A quantitative high throughput AlphaScreen has been developed to identify small molecule inhibitors based on a protocol published by NCGC and SGC [4].
Although AlphaScreen has significant advantages with its utility in a variety of epigenetic target assays, the primary screening data provided in this deposition should be used with caution due to the prevalence of screening artifacts. The top compound concentration tested was high (>100uM) in this assay, which increases number of actives and potential artifacts. An AlphaScreen counterscreen is highly recommended to be run against any putative actives to eliminate non-specific artifacts. Alternatively, one can use other AlphaScreen assays in PubChem to filter out promiscuous hits.
[1] Lee, J. et al. Distinct binding modes specify the recognition of methylated histone H3K4 and H4K20 by JMJD2A-tudor. Nat Struct Mol Biol. 15(1); 109-11. 2008. PMID: 18084306
[2] Yasgar, et al. Compound Management for Quantitative High-Throughput Screening. JALA. 2008 Apr;13(2):79-89. PMID: 18496600
[3] Inglese, et al. Quantitative high-throughput screening: a titration-based approach that efficiently identifies biological activities in large chemical libraries. Proc Natl Acad Sci. 1;103(31):11473-8. 2006. PMID: 16864780
[4] Quinn et al. A homogeneous method for investigation of methyl-dependent protein-protein interactions in epigenetics. Nucleic Acids Res., 38(2):e11. 2010. PMID: […]
[5] Baell,Holloway. New substructure filters for removal of pan assay interference compounds (PAINS) from screening libraries and for their exclusion in bioassays. J Med Chem. 53(7):2719-40. 2010. PMID: 20131845
NIH Molecular Libraries Probe Production Network [MLPCN]
NIH Chemical Genomics Center [NCGC]
Structural Genomics Consortium (SGC)
To each well of a 1,536w plate, 2ul of JMJD2A-Tudor (final 100nM) and 1ul biotinylated histone peptide methylated at Lys4 [b-H3(1-18)K4me3] (final 50nM) were added in 1x PBS buffer, pH 7.4, containing 0.01% Tween-20, using a nanoliter dispenser. Formation of a protein-peptide complex proceeded at room temperature for 30 min. A Kalypsys pin-tool transferred 23nl of library compound solution in DMSO to each well. Following a 30 min incubation of the protein-peptide complex with compounds at room temperature, a mixture of 40 µg/mL each streptavidin-coated donor and nickel chelate acceptor AlphaScreen beads (final 10 µg/mL) was added in a 1ul dispense for a final volume of 4ul, followed by a brief centrifugation (1000 rpm, 1 min). Plates were incubated protected from the light for 20 min at room temperature. Microplates were then read on an EnVision multilabel plate reader using the 1,536 plate HTS AlphaScreen aperture (excitation time 80 ms, measurement time 240 ms).
% is scaled to controls: 0 for no effect and ±100 for the full control effect; potency is read from the fitted curve at half-maximal effect; tags tell the direction and shape of the fitted curve.
Also: nearly all actives have a fitted effect of over 50% in size.

Activity change, negative = inhibition, inactive:
O=S(=O)(NC1=NCCCCC1)c1ccc2sc(NS(=O)(=O)c3ccc4ccccc4c3)nc2c1 -24%
COc1cc(/C=C/C(=O)N2CCN(Cc3ccccc3)CC2)cc(OC)c1OC -9.4%
CN(CCOc1ccccc1)C(=O)c1ccc(Cl)c(S(=O)(=O)N2CCCCC2)c1 -8.11%
COc1ccc([C@H]2Cc3cc(O)cc(O)c3C(=O)O2)cc1O -13.5%
Cc1cc(NC(=S)N(Cc2ccc(Br)cc2)Cc2ccc(C(=O)O)cc2)ccc1Cl -32.5%
CC1(C)OC(=O)C(=Cc2ccc(-c3ccc(S(N)(=O)=O)cc3)o2)C(=O)O1 -7.75%
COc1cccc(COC(=O)c2ccc(-c3nnn(Cc4ccccc4)n3)cc2)c1 11.6%
CC(=O)NC(Cc1ccc(C)cc1)C(=O)NC1CCN(C(=O)c2ccc([N+](=O)[O-])cc2)CC1 (configuration not stated) -8.28%
CCNC(=S)N1CCN(c2ccccn2)CC1 -4.9%
COc1cc(C(=O)OCC(=O)N(C)C)cc(NC(=O)c2ccco2)c1OC 4.76%
O=C(Nc1sc2c(c1C(=O)NCc1ccccc1)CCCC2)c1cc(=O)c2cc(Cl)ccc2o1 -19.1%
O=S(=O)(Nc1c(Br)cc(Br)c2cccnc12)C1CCCCC1 12.3%
Cc1sc2nc(CSc3n[nH]c(N)n3)[nH]c(=O)c2c1C -2.75%
S=C1SCN(Cc2ccco2)CN1Cc1ccco1 -24.3%
COc1cc(/C=C/[N+](=O)[O-])ccc1OCc1cccc(C(=O)O)c1 -30.8%
CCOC(=O)C1(CCCc2ccccc2)CCN(Cc2cnc(C)s2)CC1 -24.9%
COc1ccc(NC(=O)CSC2=Nc3ccccc3C3=NC(CC(=O)NCc4ccc5c(c4)OCO5)C(=O)N23)cc1 (configuration not stated) -29.7%
COc1cccc2sc(=NC(=O)CCS(=O)(=O)c3ccc(C)cc3)n(C)c12 2.07%
CCOC(=O)c1[nH]c(C)c(CCC(=O)Nc2ccc(Br)c(C)c2)c1C -21.4%
CC(C)(C)S(=O)N1Cc2ccc(CO)cc2[C@@H]1CCO (some centres not stated) -6.52%
C#CCOCCOCCOCCNc1nc(N2CCN(C(=O)Cn3cc(CCCN=C(N)N)nn3)CC2)nc(N2CCN(C(=O)[C@H](CCCCN)n3cc(CC(C)O)nn3)CC2)n1 (some centres not stated) -10.6%
Cc1ccc(Cl)cc1NC(=O)Cn1ncc2c(C)n(Cc3ccccc3F)c(C)c2c1=O -24.8%
CC(C)(C)NC(=O)c1ccc2nc(CCc3ccccc3)oc2c1 -13.7%
Cc1cc(C)cc(Nc2cc(C)nc3nc(-c4ccco4)nn23)c1 -4.97%
O=C(Nc1ccc(N2CCOCC2)cc1)c1nc2ccccc2s1 -6.29%
CC1CC(CC(=O)NNc2nc(-c3ccccc3)cs2)C(=O)O1 (configuration not stated) 0.323%

Potency, active:
COc1cc(CN2CCN(Cc3ccco3)CC2)cc(OC)c1 0.794 µM
CC(C)n1c(=S)[nH]c2c1c(=O)[nH]c(=O)n2C 2 µM
Cc1cccc(C)c1-n1c(C)cc(/C=C2\NC(=O)NC2=O)c1C 50.1 µM
COCCCNCCCOc1ccc(Cl)cc1C(C)(C)C 28.2 µM
Nn1c(-c2ccco2)n[nH]c1=S 7.08 µM
Cc1ccc(C2C=C(c3ccc(Cl)cc3)Nc3nc(NC(=O)c4ccco4)nn32)cc1 (configuration not stated) 79.4 µM
C#CCOCCOCCOCCNc1nc(N2CCN(C(=O)C([C@@H](C)CC)n3cc(C(N)COC(=O)C(F)(F)F)nn3)CC2)nc(N2CCN(C(=O)[C@H](CCCCN)n3cc(C(N)CC(C)C)nn3)CC2)n1 (some centres not stated) 56.2 µM
CC(C)(NO)/C(=N/O)c1ccc(Br)cc1 28.2 µM
NN1C(=O)NC(c2ccccc2)(c2ccccc2)C1=O 25.1 µM
CC1=NN(C(N)=S)C(=O)C1N=Nc1cccc(C(=O)O)c1 (configuration not stated) 3.98 µM

Potency, inconclusive:
CC(C)c1ccc(NS(=O)(=O)c2ccc3[nH]c(=O)ccc3c2)cc1 56.2 µM [inhibitor, partial curve]
CC(C)Oc1cccc(C(=O)NC(=S)Nc2ccc(Cl)c(C(=O)O)c2)c1 50.1 µM [inhibitor, full curve]
C#CCn1cc(/C=N/NC(=O)COc2cccc3cccnc23)c2ccccc21 44.7 µM [inhibitor, single point]
O=C(Nc1ccc(C(F)(F)F)cc1)C1CC(=O)N(c2ccc3c(c2)OCCO3)C1 (configuration not stated) 79.4 µM [inhibitor, single point]
Cc1ccc(-c2nnn(CC(=O)N(Cc3ccco3)C(C(=O)NC(C)(C)C)c3ccc(C)o3)n2)o1 (configuration not stated) 39.8 µM [inhibitor, single point]
O=C(c1ccccc1)N1CCN(c2ccc([N+](=O)[O-])c(NCc3ccco3)c2)CC1 44.7 µM [inhibitor, partial curve]
O=C(Nc1ccccc1-c1ccccc1)c1cccs1 12.6 µM [inhibitor, full curve]
COCCOC(=O)C(C#N)c1nc2ccccc2nc1N1CCN(Cc2ccccc2)CC1 (configuration not stated) 56.2 µM [inhibitor, partial curve]
CCc1nnc(NS(=O)(=O)c2ccc(NC(=S)NC(=O)c3ccc(Br)cc3)cc2)s1 79.4 µM [inhibitor, partial curve]
CCOC(=O)c1c(C)[nH]c(C)c1C(=O)COc1ccc(NC(=O)c2ccco2)cc1 56.2 µM [inhibitor, partial curve]
COc1nccnc1NS(=O)(=O)c1ccc(NC(=S)NC(=O)c2ccccc2)cc1 39.8 µM [inhibitor, single point]
COc1ccc(-c2nc(CS(=O)CC(=O)NC3CCCC3)c(C)o2)cc1 (configuration not stated) 22.4 µM [inhibitor, single point]
Cn1c(C(=O)NCc2ccc3c(c2)OCO3)cc2sccc21 50.1 µM [inhibitor, partial curve]
COc1ccc(Cl)c(N2CCN(CCCNC(=O)Nc3ccc(C)cc3)CC2)c1 50.1 µM [inhibitor, partial curve, poor fit]
Cc1cccc(C(=O)OCC(=O)Nc2sc3c(c2C#N)CCC3)c1 56.2 µM [inhibitor, partial curve]
COc1cc(C(=S)N2CCOCC2)ccc1OS(=O)(=O)c1ccccc1[N+](=O)[O-] 28.2 µM [inhibitor, partial curve]
COc1cccc(C2c3[nH]c4ccccc4c3C[C@H]3C(=O)N(C4CCN(Cc5ccccc5)CC4)CC(=O)N23)c1 (some centres not stated) 20 µM [inhibitor, full curve]
Cc1cccc(N2CCN(S(=O)(=O)c3c(C(=O)N4CCC(C)CC4)c(C)n(C)c3C)CC2)c1C 50.1 µM [inhibitor, partial curve]
CCOc1ccc(C(c2c(O)cc(C)n(Cc3ccco3)c2=O)N2CCN(c3ccccc3)CC2)cc1 (configuration not stated) 56.2 µM [inhibitor, partial curve]
COc1cc(O)cc2c1[C@@H]1Oc3c(ccc(O)c3CC=C(C)C)[C@@H]1CO2 79.4 µM [inhibitor, partial curve]
O=C(/C=C/c1cccs1)NC(=S)Nc1ccccc1 35.5 µM [inhibitor, full curve]
COc1ccc(-c2nc(-c3ccccc3)c(-c3ccc(F)cc3)[nH]2)c(OC)c1C 50.1 µM [inhibitor, partial curve]
O=C(Nc1cc(C(=O)Nc2ccccc2C(=O)O)cc(C(=O)Nc2ccccc2C(=O)O)c1)c1ccccc1 79.4 µM [inhibitor, partial curve]
CC1CN(C(=O)CCC(=O)NCc2ccccc2)c2cc(Cl)ccc2O1 (configuration not stated) 79.4 µM [inhibitor, partial curve]
O=C(CS)Nc1ccc2ccccc2c1 22.4 µM [inhibitor, single point]
CC(C)(C)OC(=O)N/N=C/c1cccn1-c1ccc([N+](=O)[O-])cc1 56.2 µM [inhibitor, partial curve]
COc1ccc(NC(=O)c2cccc(N3C(=O)C4C5C=CC(C6CC56)C4C3=O)c2)c(OC)c1 (configuration not stated) 31.6 µM [inhibitor, full curve]
COC(=O)c1ccccc1S(=O)(=O)N1CCCC(c2nc3c(nnn3Cc3ccc(C)cc3)c(=O)[nH]2)C1 (configuration not stated) 79.4 µM [inhibitor, single point]
COc1cc(/C=C2/C(=N)N3C(=NC2=O)SN=C3S(C)(=O)=O)ccc1OC(=O)c1ccco1 50.1 µM [inhibitor, partial curve]
O=C(N=NC(=O)c1ccco1)c1ccc2c(O)n(N3C(=O)c4ccccc4C3=O)c(O)c2c1 44.7 µM [inhibitor, single point]
COc1ccc(-c2cn(CCO)c(CCN)n2)cc1 39.8 µM [inhibitor, single point]
Cc1ccc(C(=O)NC(=S)NCc2cccnc2)cc1 39.8 µM [inhibitor, partial curve]
CN1CCCN(C(=O)CC2(CC(=O)O)CCCCC2)CC1 35.5 µM [inhibitor, single point]
O=C1NC(=S)NC(=O)C1Nc1ccc(Cl)cc1 20 µM [inhibitor, partial curve, poor fit]
CC1CN(c2nnc(-c3ccccc3)c3ccccc23)CC(C)O1 (configuration not stated) 31.6 µM [inhibitor, single point]
O=C(COC(=O)c1ccc(Sc2ccccc2)c([N+](=O)[O-])c1)NC1CCS(=O)(=O)C1 (configuration not stated) 70.8 µM [inhibitor, single point]
